# Results as given in PubChem BioAssay AID463173 (ICCB-Longwood Screening Facility, Harvard Medical School, 2010).
# The campaign covered roughly 52,000 compounds. About 1,700 (3.3%) were called active. No stated cut-off is given here; in the data, active means survival mostly below about 52% (no sharp cut-off); inactive means mostly above about 56%. The list shows a part of the results.
# Tested on: Wild type
# Test: S. aureus survival, RN4220 and DeltatarO strains – OD600, teichoic acid synthesis inhibitors, primary screen (AID 463173)
# Conditions: S. aureus RN4220 wild type/DeltatarO growth, OD600, 18 h, active compounds read low, screened at 18.75 µg/mL (by protocol)
row,Structure (SMILES),survival
1,CC(C)(C)OC(=O)N1CCC(c2c(C(=O)N3CCCCC3)cnn2-c2ccc(Cl)cc2)CC1,inactive: 65%
2,COc1ccc(OC)c(-c2nnc3n(Cc4ccc(C)cc4)c(=O)c4ccccc4n23)c1,inactive: 86%
3,Cc1c(-c2ccc(Br)cc2)c(=O)oc2ccc(OC(=O)N3CCOCC3)cc12,inactive: 75%
4,CCN(CC)C(=O)CSc1nc(-c2ccccc2F)nc2c1Cc1c(CO)cnc(C)c1O2,inactive: 111%
5,COC(=O)c1ccccc1NC(=O)CSc1nc2ccsc2c(=O)n1CCC(C)C,inactive: 78%
6,c1ccc(CSc2ncnc3c2cnn3-c2ccccc2)cc1,inactive: 104%
7,CCOc1cc(C(=O)NCCc2csc3nc(-c4ccc(C)cc4)nn23)cc(OCC)c1OCC,inactive: 71%
8,C=Cc1ccc(Cn2c(C)c(CNCc3cccc(Br)c3)c(C(=O)O)c2C)cc1,inactive: 82%
9,Cc1cc(C)nc(SCC(=O)Nc2nc(=O)c3ccccc3s2)n1,inactive: 104%
10,COc1ccc(Cc2nc3ccccc3[nH]c2=O)cc1,inactive: 68%
11,Cc1c(Cl)cccc1-c1ccc(C(=O)Nc2ccc(F)cc2)o1,active: -1%
12,CCOC(=O)C1=C(C)NC(=O)NC1c1ccccc1 (stereo not drawn),inactive: 115%
13,Cc1cccc(Cn2c(CNS(=O)(=O)c3ccc4c(c3)CCCC4)nc3cccnc32)c1,inactive: 81%
14,CCCCN(C(=O)C1CCC1)c1nnc(-c2ccncc2)s1,inactive: 94%
15,O=C(c1ccccc1Cl)N1c2ncnn2C2(CCCCC2)[C@@H]2CCCC[C@@H]21,inactive: 92%
16,COC(=O)c1ccc(OCC2c3cc(OC)c(OC)cc3CCN2C(=O)COc2ccc(Cl)cc2)cc1 (stereo not drawn),inactive: 77%
17,CCOC(=O)c1c(S(=O)(=O)N2CCCC(C(=O)NCc3ccc(Cl)cc3)C2)c(C)n(C)c1C (stereo not drawn),inactive: 73%
18,COc1ccc(F)cc1S(=O)(=O)NCCc1csc2nc(-c3cccc(C)c3)nn12,inactive: 73%
19,Cc1cccc(NC(=O)CCS(=O)(=O)c2ccc3c(c2)n(C)c(=O)c(=O)n3C)c1C,inactive: 138%
20,CCOC(=O)c1noc2ncn(CC(=O)Nc3ccc(C)c(F)c3)c(=O)c12,inactive: 72%

row,Structure (SMILES),survival
1,CCc1cccc(NC(=O)C2CCN(C(=O)c3cnn(-c4ccccc4)c3-n3cccc3)CC2)c1,inactive: 83%
2,Nc1nc(Nc2ccccc2F)sc1C(=O)c1ccc(Cl)cc1,active: -7%
3,CCOC(=O)C1CCCN(C(=O)c2nn(-c3ccc(OC)cc3)c(=O)c3c2c2ccccc2n3C)C1 (stereo not drawn),inactive: 125%
4,Cc1ccc(C(=O)NCC(=O)O)o1,inactive: 103%
5,CCc1ccc(-n2nc(C)c3c(C)cc(=O)n(CC(=O)N4CCCc5ccccc54)c32)cc1,inactive: 84%
6,O=c1cc(-c2ccccc2)n2c(SCc3ccccc3)nnc2[nH]1,inactive: 74%
7,Cc1ccc(-n2c(=O)c3c(C)c(C(=O)N(C)C)sc3n(CC(=O)C(C)(C)C)c2=O)cc1C,inactive: 94%
8,Cc1c(C(=O)N(Cc2ccccc2F)C2CCS(=O)(=O)C2)oc2ccc(F)cc12 (stereo not drawn),inactive: 100%
9,Cn1c(=O)c2c(nc(NCc3ccccc3)n2Cc2ccccc2)n(C)c1=O,inactive: 79%
10,Cn1c(=O)c2c(SCC(=O)NCc3ccco3)nc(-c3ccccc3)nc2n(C)c1=O,inactive: 88%
11,CCOC(=O)c1cnc2ccc(OC)cc2c1NCCc1ccccc1,active: 0%
12,COc1ccc(N2CC(NC(=O)COc3ccccc3)CC2=O)cc1OC (stereo not drawn),inactive: 73%
13,c1ccc(CCCNc2ncccn2)cc1,inactive: 101%
14,CCc1ccc(-n2nc3cc(C)c(NC(=O)c4cccc5ccccc45)cc3n2)cc1,inactive: 62%
15,Cc1cccc(CNC(=O)Cn2nc(C)n3c(cc4cc(F)ccc43)c2=O)c1,inactive: 75%
16,CN(c1ncnc2onc(-c3cccc(Cl)c3)c12)C1CCCCC1,active: -1%
17,Cc1ccc(-n2nc(CO)c(C(=O)NCc3ccccn3)n2)cc1C,inactive: 113%
18,C=CCNC(=O)c1ccccc1NC(=O)C1COc2ccccc2O1 (stereo not drawn),inactive: 103%
19,COc1ccccc1/C=C/C(=O)N1CCC(C(N)=O)CC1,inactive: 103%
20,CC1CCn2c(nc3cc(C(=O)NCCc4ccc(Cl)cc4)ccc32)C1 (stereo not drawn),inactive: 124%

row,Structure (SMILES),survival
1,CC(C)CN(CCCNC(=O)Cn1ncc2c3ccccc3n(C)c2c1=O)CC(C)C,inactive: 82%
2,Cc1ccc(CNC(=O)c2cc3c(s2)-c2ccccc2SC3)cc1,inactive: 120%
3,CCOC(=O)c1cc(-c2ccccc2)n(CC(=O)NC(C)c2ccccc2)c1C (stereo not drawn),inactive: 81%
4,COc1ccc(Cl)cc1NC(=O)CCS(=O)(=O)c1nc(-c2cccs2)cc(C(F)(F)F)n1,inactive: 63%
5,CCOC(=O)c1ccc(NC(=O)Nc2c[nH]c(=O)[nH]c2=O)cc1,inactive: 125%
6,CCc1ccc(OC(C)C(=O)N2CCC(c3nc4ccccc4s3)CC2)cc1 (stereo not drawn),inactive: 35%
7,CC(C)COc1ccc(C(=O)Nc2cccc(-c3nc4ccccc4[nH]3)c2)cc1,inactive: 60%
8,Cc1cc(C)cc(NC(=O)CCS(=O)(=O)c2cc3c4c(c2)CCN4C(=O)CC3)c1,inactive: 81%
9,CCN(CC)Cn1nc(-c2ccccc2Cl)oc1=S,inactive: 114%
10,CCn1cc(C(=O)N2CCN(c3cccc(C(F)(F)F)c3)CC2)c2cc(OC)c(OC)cc2c1=O,inactive: 160%
11,CN(Cc1ccccc1)Cn1[nH]c(=O)ccc1=O,inactive: 101%
12,COc1ccccc1-c1cc2nc(C)c(CCC(=O)Nc3ccc(Br)c(C)c3)c(C)n2n1,inactive: 69%
13,O=C(NC1(C(F)(F)F)C(=O)Nc2c1c(=O)[nH]c(=O)n2CCc1ccccc1)c1ccc(Cl)cc1Cl (stereo not drawn),inactive: 69%
14,CCOc1ccccc1NC(=O)C1CCCN(S(=O)(=O)c2c(C)[nH]c(=O)[nH]c2=O)C1 (stereo not drawn),inactive: 79%
15,CCOc1ccc(/C=C(\C#N)c2nc3ccccc3c(=O)[nH]2)cc1OC,inactive: 90%
16,Cc1ccc(N2CC(NC(=O)Cc3cccs3)CC2=O)cc1C (stereo not drawn),inactive: 19%
17,CCOC(=O)N1CCc2c(sc(NCc3cccc(F)c3)c2C(=O)Nc2ccccc2OCC)C1,inactive: 72%
18,Cc1nc(N2C(=O)c3oc4ccccc4c(=O)c3C2c2cccc(OCCC(C)C)c2)sc1C (stereo not drawn),inactive: 69%
